# Experimental data from the supplement of paper PMC10126150.
# Values marked as one replicate rest on one cluster of the flow cell; about a third of the high ones do not repeat.
# System: ATP
# Assay: switch fluorescence ratio, 500 uM ATP over buffer (Cy3 cluster intensity, sum of 5 cycles each) (fold (ratio)); higher = stronger signal-on switching upon ATP binding; sequences stand for … in TCGTCGGCAGCGTCAGATGTGTATAAGAGACAGTTTTTTTTTTTTTTTTTTTTTTTTT…TC
# Settings: aptamer strand: ATP DNA aptamer (quencher-CACCTGGGGGAGTATTGCGGAGGAAGG + anchor), 100 nM annealed; ATP concentration: 500 uM; one replicate
# Outline: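 Between each of five buffer/ATP cycles, the flow-cell was stripped with NaOH and re-annealed. Each cycle imaged Cy3-labelled switching-strand clusters, annealed to 100 nM quencher-labelled ATP aptamer on a modified Illumina MiSeq flow-cell, first in selection buffer and then after 15 min with 500 uM ATP at 22 °C. The fluorescence ratio is summed target-cycle over summed buffer-cycle Cy3 intensity per cluster, averaged per switch-domain sequence, with clusters outside 100-1000 RFU excluded.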
# 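Further: ATP exposure 15 min at 22 °C before imaging.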
row,Sequence,switch fluorescence ratio
1,CTATCAGACA,1.04
2,GAATGGGAGC,0.988
3,TACCGTAAAG,1.12
4,TTCTCGTCCT,1.01
5,GGAGGTCGGC,1.01
6,TGCCGCGGCT,1
7,GATAGTTGTT,0.939
8,TTTCTCACA,1.09
9,GGGGGTTGTC,1.14
10,GGTGTTCAAG,0.981
11,TACGTATGTT,1.03
12,AGGTAAGGCG,0.974
13,CGACCTAATA,1.36
14,ATGCGAAGGG,1.03
15,GGCTAGGTAA,0.967
16,CCGTGCATTA,4.33
17,ATAGACGA,1
18,GGAGTACTGC,1.13
19,CTACCGCTCC,2.85
20,CAGCGAGGCA,1.04
21,GTCAGATGTT,0.967
22,CGGGTCCTCC,1.01
23,CCGGCGACCT,1.23

row,Sequence,switch fluorescence ratio
1,TATGCGATGG,1.02
2,TGCACGTT,1.02
3,GATCAGGGC,1.05
4,GTTCGAAGA,1.11
5,GCTGTGGAG,1.04
6,AGGCGTGTGC,1.05
7,TCCTGGGTAC,1.26
8,AATCGGAC,1.07
9,CTGGGTTCCC,0.989
10,AGAACCTTTT,1.07
11,TCAGGGAGCT,1.04
12,GCTGTGACGC,1.02
13,AATAAGTCTG,0.972
14,AAGCGCGAAT,1.01
15,TTTTGAAAGC,0.963
16,GGGACACTCT,1
17,CGTGAGCTTC,1.11
18,TAGGCATGGA,1
19,CGTGGAATAT,0.988
20,TTTACGCTTC,1.17
21,GGGACAATTA,1.02
22,AGGATGAGGA,0.925
23,CGGTTTGTGA,0.99

row,Sequence,switch fluorescence ratio
1,TACCCAGAAT,1.03
2,CGGTCAGCTA,1.06
3,ACGAGGAGAC,1.05
4,CCTAGCCCGT,1.04
5,TTATACTCAA,1.29
6,TTTACCGGGT,0.994
7,TACCCGTCGG,1.05
8,ACCTATGTGG,1.04
9,TGAGCGTCAA,1.07
10,GAACTGCTCG,0.97
11,CGAGCGCCGG,0.94
12,GCAGTGGGAT,0.978
13,CCAATTCTCC,2.51
14,ACATATAAAG,1.03
15,AGCAGTTGAC,1.16
16,ATCTCTGAAC,1.03
17,GGGTGAGCCG,1.05
18,ACACTCAGGC,1.11
19,GCTCTTCTGA,1.13
20,AGGCTCTTTA,0.964
21,GATATTCAGA,0.976
22,GGAGACGACA,0.987
23,AAGCACACAG,1.08

row,Sequence,switch fluorescence ratio
1,GCAGGACCG,1.07
2,TTATCAGCGT,0.977
3,CATATTGTTC,1.03
4,CGGACGCGGA,1.24
5,AGTACTCGGC,1.08
6,TGAGCGCGAG,0.999
7,CTACTTTTAA,0.948
8,CGAGAGGTTA,1.03
9,CATTCAGTT,1
10,TTCTAGTATA,0.984
11,CGCTCTGAAT,0.999
12,GATAACTTGC,1.06
13,GAGGCCACCA,1.03
14,CGAAGTTCAT,0.987
15,GCTTAAATGC,1.05
16,GATAGCAGTT,1.01
17,CATGGTAGCG,0.973
18,TCAAGACTAG,0.976
19,AAAACTTTAA,0.981
20,CATAGGCGCG,0.934
21,ACAAAGCACG,1.16
22,CTGACAGAGA,1.02
23,AAGGATTCTT,0.985

row,Sequence,switch fluorescence ratio
1,AGCGATGAAC,1.55
2,TTTGCAACGT,1.04
3,AAGACTCGGA,0.947
4,GATACGAGTT,0.958
5,GTTACTATGC,1.05
6,TTTAGACAGG,0.96
7,TCCCGTATGA,1.03
8,AGATTTGGTA,1.01
9,TCAGTGCCT,1.04
10,AGCGAAGATA,0.976
11,GCCCCGAGCC,1.12
12,CCGTCACCTA,1.12
13,GACCGCGCAA,3.83
14,TGATTAAGCT,1.01
15,CTCAGGGGCT,1.22
16,TGAATTTCCA,0.971
17,GTAGCTAGTT,1.03
18,CTTTACACTT,1.05
19,CCCATGATCG,0.969
20,TTGATACGTT,1.02
21,TCGTCTGACA,0.976
22,TCGGAGCTCC,1.08
23,TCGGCTATAA,1.53

row,Sequence,switch fluorescence ratio
1,AGCCTGGTCG,1.03
2,GCACAACCT,1.7
3,GCGAAGCAAA,1.05
4,TATTGGCGG,0.998
5,AAAGTTTTTA,0.97
6,CCGTATCAAA,1.17
7,TGGAAAGAAT,0.967
8,GTTGGTGTCC,1.04
9,TCATTATATG,1.01
10,ATACTTCGGC,0.888
11,TTGGTAAGG,0.95
12,AAAAGGAAGG,0.99
13,TATTGTTGCT,1.07
14,TCTCCTGCTG,1.27
15,CAGTAAGTTA,0.955
16,CACCGTATCT,1.1
17,CAGAACGGGG,0.957
18,GGAGCAGTGG,1.58
19,GAAAAGGGGC,1.06
20,TCGTAAGTTT,0.966
21,GCGTCAGGCA,1
22,TCTAGACCGC,1.09
23,TCGCAGCTGA,1.73

row,Sequence,switch fluorescence ratio
1,GTCCTAGGGC,1.05
2,GTAGCCAACT,1.05
3,CAAGTGGAAA,0.989
4,AATTGACTCA,1.01
5,GAAGCGCCTA,1.04
6,CGAGTCCTTT,0.974
7,TGCGCTTACT,1.92
8,GAAGGTTTAG,0.962
9,TCACGTGCTG,0.986
10,CGCGGTGGCC,1.03
11,TTTCGCTGCG,0.941
12,TAGGGCGA,0.968
13,AAAAAGGCGT,0.977
14,TCCCCGTTTG,1.13
15,ACCCGCAGGT,1.21
16,CGATTGTGAT,1.02
17,GGCCTGTGCG,0.999
18,ATGACTGGAT,1.02
19,CTTTAAAGCA,0.979
